The other results are listed elsewhere or left out. The full chains were built here from the parent and the listed change. Values near 0.05 are background.
B1: TEV protease; numbered along this chain (parent)
chain: MGESLFKGPRDYNPISSSICHLTNESDGHTTSLYGIGFGPFIITNKHLFRRNNGTLVVQSLHGVFKVKDTTTLQQHLVDGRDMIIIRMPKDFPPFPQKLKFREPQREERICLVTTNFQTKSMSSMVSDTSCTFPSGDGIFWKHWIQTKDGQCGSPLVSTRDGFIVGIHSASNFTNTNNYFTSVPKNFMELLTNQEAQQWVSGWRLNADSVLWGGHKVFMVKPEEPFQPVKEATQL

Variants of: B1
Test: raw area under fraction-flipped curve 0-4 h after induction (AUC4h, not background-subtracted), DNA-recorder readout of cleavage of the substrate (dimensionless); higher = more cleavage of the substrate by the protease variant
Settings: temperature: 34 °C; time window: 0-4 h after rhamnose induction
Experimental: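 In vivo DNA recorder in E. coli TOP10(DE3) ΔrhaA at 34 °C. Each TEVp single-site mutant (parent TEVp 0) is paired with a single-site variant of the 7-mer TEVs (canonical ENLYFQ|S). The substrate sits between flexible linkers in a Bxb1-sfGFP-TEVs-SsrA fusion, so cleavage stabilises Bxb1 and speeds flipping of a recombination array, read by NGS. The value is the raw area under the fraction-flipped curve over 0-4 h after rhamnose induction (AUC4h), with ≥20 reads per time point. It is not background-subtracted; inactive controls average about 0.047.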
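Further: Bxb1 expression induced with 0.2% (w/v) L-rhamnose at OD600 near 0.5, cultures sampled hourly, flipped fraction per protease–substrate barcode pair counted by paired-end Illumina sequencing.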

## I164L
  area with substrate ENAYFQS: 0.0677
  area with substrate ENCYFQS: 0.0751
  area with substrate ENDYFQS: 0.0577
  area with substrate ENEYFQS: 0.0569
  area with substrate ENFYFQS: 0.0636
  area with substrate ENGYFQS: 0.0594
  area with substrate ENHYFQS: 0.0624
  area with substrate ENIYFQS: 0.0838
  area with substrate ENKYFQS: 0.0639
  area with substrate ENMYFQS: 0.0681
  area with substrate ENNYFQS: 0.0366
  area with substrate ENPYFQS: 0.0468
  area with substrate ENQYFQS: 0.0587
  area with substrate ENRYFQS: 0.0586
  area with substrate ENSYFQS: 0.0574
  area with substrate ENTYFQS: 0.0583
  area with substrate ENVYFQS: 0.0663
  area with substrate ENWYFQS: 0.005
  area with substrate ENYYFQS: 0.0571

## I164E
  area with substrate ENAYFQS: 0.0509
  area with substrate ENCYFQS: 0.048
  area with substrate ENDYFQS: 0.0508
  area with substrate ENEYFQS: 0.0623
  area with substrate ENFYFQS: 0.0603
  area with substrate ENGYFQS: 0.0458
  area with substrate ENHYFQS: 0.0569
  area with substrate ENIYFQS: 0.123
  area with substrate ENKYFQS: 0.0532
  area with substrate ENMYFQS: 0.0699
  area with substrate ENPYFQS: 0.0549
  area with substrate ENQYFQS: 0.0487
  area with substrate ENSYFQS: 0.0516
  area with substrate ENVYFQS: 0.0564

## I164H
  area with substrate ENAYFQS: 0.0899
  area with substrate ENCYFQS: 0.0546
  area with substrate ENDYFQS: 0.075
  area with substrate ENEYFQS: 0.0489
  area with substrate ENFYFQS: 0.0537
  area with substrate ENMYFQS: 0.0438
  area with substrate ENPYFQS: 0.0483
  area with substrate ENQYFQS: 0.0499
  area with substrate ENRYFQS: 0.0521
  area with substrate ENSYFQS: 0.0619
  area with substrate ENTYFQS: 0.0517
  area with substrate ENVYFQS: 0.0428
  area with substrate ENYYFQS: 0.0646

## N177V
  area with substrate ENAYFQS: 0.0874
  area with substrate ENCYFQS: 0.0684
  area with substrate ENDYFQS: 0.0452
  area with substrate ENHYFQS: 0.0729
  area with substrate ENKYFQS: 0.0595
  area with substrate ENMYFQS: 0.0915
  area with substrate ENNYFQS: 0.0551
  area with substrate ENQYFQS: 0.111
  area with substrate ENRYFQS: 0.0577
  area with substrate ENSYFQS: 0.0675
  area with substrate ENTYFQS: 0.0871
  area with substrate ENVYFQS: 0.106
  area with substrate ENWYFQS: 0.0368

## S182W
  area with substrate ENAYFQS: 0.0449
  area with substrate ENDYFQS: 0.0226
  area with substrate ENEYFQS: 0.0493
  area with substrate ENGYFQS: 0.0614
  area with substrate ENHYFQS: 0.0606
  area with substrate ENKYFQS: 0.0349
  area with substrate ENMYFQS: 0.0623
  area with substrate ENPYFQS: 0.0351
  area with substrate ENQYFQS: 0.0586
  area with substrate ENRYFQS: 0.0606
  area with substrate ENSYFQS: 0.0814
  area with substrate ENWYFQS: 0.0218

## I167F
  area with substrate ENAYFQS: 0.0492
  area with substrate ENCYFQS: 0.0625
  area with substrate ENDYFQS: 0.0596
  area with substrate ENEYFQS: 0.0581
  area with substrate ENFYFQS: 0.059
  area with substrate ENGYFQS: 0.0564
  area with substrate ENIYFQS: 0.0689
  area with substrate ENKYFQS: 0.0671
  area with substrate ENNYFQS: 0.0555
  area with substrate ENQYFQS: 0.0664
  area with substrate ENRYFQS: 0.074
  area with substrate ENSYFQS: 0.0711
  area with substrate ENVYFQS: 0.0561
  area with substrate ENWYFQS: 0.0656
  area with substrate ENYYFQS: 0.0428

## G162H
  area with substrate ENAYFQS: 0.0625
  area with substrate ENCYFQS: 0.059
  area with substrate ENDYFQS: 0.0564
  area with substrate ENEYFQS: 0.0635
  area with substrate ENFYFQS: 0.0708
  area with substrate ENGYFQS: 0.0776
  area with substrate ENHYFQS: 0.047
  area with substrate ENKYFQS: 0.0724
  area with substrate ENNYFQS: 0.0626
  area with substrate ENPYFQS: 0.0557
  area with substrate ENQYFQS: 0.0598
  area with substrate ENRYFQS: 0.078
  area with substrate ENSYFQS: 0.0673
  area with substrate ENTYFQS: 0.0635
  area with substrate ENVYFQS: 0.0855
  area with substrate ENWYFQS: 0.0408

## L156K
  area with substrate ENAYFQS: 0.0406
  area with substrate ENCYFQS: 0.0526
  area with substrate ENDYFQS: 0.0659
  area with substrate ENEYFQS: 0.0534
  area with substrate ENGYFQS: 0.0581
  area with substrate ENHYFQS: 0.0537
  area with substrate ENIYFQS: 0.0262
  area with substrate ENNYFQS: 0.024
  area with substrate ENQYFQS: 0.0803
  area with substrate ENRYFQS: 0.0625
  area with substrate ENSYFQS: 0.0412
  area with substrate ENTYFQS: 0.0563
  area with substrate ENVYFQS: 0.0526
  area with substrate ENYYFQS: 0.0614

## M188L
  area with substrate ENAYFQS: 0.0369
  area with substrate ENCYFQS: 0.0725
  area with substrate ENDYFQS: 0.0605
  area with substrate ENEYFQS: 0.0548
  area with substrate ENNYFQS: 0.0668
  area with substrate ENPYFQS: 0.0576
  area with substrate ENQYFQS: 0.0596
  area with substrate ENRYFQS: 0.0567
  area with substrate ENTYFQS: 0.0701
  area with substrate ENVYFQS: 0.0685

## K148N
  area with substrate ENAYFQS: 0.0738
  area with substrate ENCYFQS: 0.0649
  area with substrate ENDYFQS: 0.069
  area with substrate ENEYFQS: 0.0604
  area with substrate ENHYFQS: 0.0724
  area with substrate ENIYFQS: 0.0745
  area with substrate ENKYFQS: 0.0685
  area with substrate ENMYFQS: 0.0649
  area with substrate ENNYFQS: 0.0674
  area with substrate ENPYFQS: 0.0692
  area with substrate ENQYFQS: 0.0608
  area with substrate ENSYFQS: 0.06
  area with substrate ENTYFQS: 0.0676
  area with substrate ENVYFQS: 0.0703
  area with substrate ENWYFQS: 0.0013
  area with substrate ENYYFQS: 0.0851

## K148M
  area with substrate ENAYFQS: 0.065
  area with substrate ENCYFQS: 0.0593
  area with substrate ENDYFQS: 0.0572
  area with substrate ENEYFQS: 0.0596
  area with substrate ENFYFQS: 0.0639
  area with substrate ENGYFQS: 0.0422
  area with substrate ENHYFQS: 0.0549
  area with substrate ENIYFQS: 0.122
  area with substrate ENMYFQS: 0.0499
  area with substrate ENNYFQS: 0.043
  area with substrate ENPYFQS: 0.0613
  area with substrate ENQYFQS: 0.0565
  area with substrate ENRYFQS: 0.0488
  area with substrate ENSYFQS: 0.0462
  area with substrate ENTYFQS: 0.057

## K148T
  area with substrate ENAYFQS: 0.0031
  area with substrate ENCYFQS: 0.0418
  area with substrate ENDYFQS: 0.0622
  area with substrate ENEYFQS: 0.0622
  area with substrate ENFYFQS: 0.0653
  area with substrate ENHYFQS: 0.0525
  area with substrate ENIYFQS: 0.0794
  area with substrate ENNYFQS: 0.0635
  area with substrate ENRYFQS: 0.0585
  area with substrate ENSYFQS: 0.0377
  area with substrate ENTYFQS: 0.0648
  area with substrate ENVYFQS: 0.0659
